Results from PubChem BioAssay (NCI).
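Cultured in 96-well plates, cells were exposed to test compound for 48 hours across five concentrations. GI50 = concentration required for 50% inhibition of growth. At the TGI there is no net growth.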

Tested on: NCI-H322M lung
Assay: DTP human tumour cell line panel, 48 h

Structure (SMILES)	GI50	TGI
CONC[C@]1(C)C=C2C(=O)[C@](C)(O)C3(CC3)C(C)=C2[C@H]1O	2.18 µM	7.34 µM
O=C(CS(=O)(=O)c1oc(-c2ccc(Cl)cc2)nc1S(=O)(=O)c1ccc(Cl)cc1)N1CCOCC1	66 µM	> 100 µM
CSc1ccccc1NC(=O)c1ccc2nnn(/C(C#N)=C/c3ccccn3)c2c1	13.9 µM	26.8 µM
CN1CCN(c2ccc(Nc3nc(N4CCN(S(=O)(=O)c5ccc(F)cc5)CC4)c4sccc4n3)cc2)CC1	3.31 µM	12.3 µM
O=C(CNc1nc(-c2ccccc2)cs1)Nc1ccc([N+](=O)[O-])cc1	4.16 µM	17.3 µM
